# ± gives the standard deviation of the averaged measurements. Some of the results follow.
# Test system: PfAP2-G AP2 domain (GST-tagged)
# Assay: gcPBM binding intensity (ln(normalized median fluorescence intensity)); higher = stronger DNA binding
# Method in brief: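 Plasmodium falciparum DNA-binding domains carrying a GST tag were expressed in E. coli and applied for 1 h, at about 25 μg on average, to an Agilent 4 × 180k array. The array held primer-extended double-stranded 36-bp intergenic genomic probes together with negative controls, and binding took place in 1× PBS with 1% milk, 0.2 mg/ml BSA, 0.5% salmon testes DNA and 0.03% Triton X-100. An Alexa488 anti-GST antibody detected bound protein, and the array was scanned at 488 nm. Binding intensity is taken as the highest Masliner-normalised natural-log median intensity across replicate spots of either probe orientation.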
row,Sequence,gcPBM binding intensity (ln)
1,CAATATAAAAAACACACACACAAACATATATTTATA [CACACA_site3703],9.96
2,TATTTTTTTTTTGGGTGTACCTTTTATATATATTGT [XGTACX_site5036],11.3 ± 0.84
3,ATAATATGAAATATAACACACATATATAAAAACATT [CACACA_site866],9.96 ± 0.12
4,TATACACATTTTTATACACACTTGTTTTATAAAACG [CACACA_site6480],10.2 ± 0.11
5,GACGTTATGATACACATACACACAGGGATAAAAAAT [CACACA_site2882],10.5 ± 0.47
6,AATATTATATTTTATTGTACTAATAAAAATATATGC [XGTACX_site5435],11.2 ± 0.79
7,ATTTAACTAAAGAAGGCACACGTGTTTAAAAAAAAA [CACACA_site5241],10.1 ± 0.11
8,CATTTATATATATACACACACACAAAAAAAAAAAAA [CACACA_site2645],10.1 ± 0.49
9,TATATATATATATATGCATGTACATATATTTGTTAT [TGCATGCA_site379],11.1 ± 0.42
10,TTTTTTTTTTTTTTTTGTACTTAAAAATTTATATAA [XGTACX_site7718],11.2 ± 1
11,AATGGAATATATATTTGTACATAAATATTATAATAA [XGTACX_site8524],10.9 ± 0.49
12,TATAAATAAAAATATACACACTGTATTATTGTAATA [CACACA_site7721],9.79 ± 0.057
13,ACATAGCAATGTTTCACACACAAGAAAAAATACAAT [CACACA_site2379],10.08 ± 0.057
14,GAAATGTGGTAATATACACACACGCATATATTTATA [CACACA_site6285],10.3 ± 0.26
15,TTTGAACTCTTAAGTGGTACAAATTTGTATTTTCTC [XGTACX_site2322],11.1 ± 0.75
16,TTATTTACAACTTTTTTTTTTTTATTTTATTTTATT [CACACA_negctrl_site341],9.66 ± 0.21
17,TTTACTCCTACAACATGTACATAAAATAAATTTTTT [XGTACX_site5010],11.4 ± 0.88
18,ACATGTTAACTAAATGTACACACCTATGTTGATGTA [CACACA_site1821],11.3 ± 0.67
19,TTGATTTATATTTAATGTACATTTTTACAGAAAATT [XGTACX_site2747],11.1 ± 0.71
20,CCATAAAAAGGATACACACACACACGCACATATATA [CACACA_site6550],10.5 ± 0.3
21,GATTAAACACAAAGAAGTACGGACATAAAAAAAAAA [XGTACX_site3686],11.4 ± 0.9
22,AATATAAGTAGTACAGTGCATATAATAATTAGAAGA [GTGCAC_site9485],11.6 ± 1

row,Sequence,gcPBM binding intensity (ln)
1,GTATATATATATATATATATATATTTTTATTTATTT [CACACA_negctrl_site589],9.505 ± 0.064
2,TCGTGGTTTTAATAAGTGCGCAATTTAAATATTTTT,10.2 ± 0.11
3,TATTATTATTATTACACACACAATTATATTTACCCC [CACACA_site503],10.3 ± 0.36
4,TATACACCCGGACACACACACATATATATATATATA [CACACA_site5030],10.8 ± 0.51
5,ATATTATATATATAGGTGCGAGTATTTTATAAATAT [GTGCAC_site9889],10.2 ± 0.15
6,ATATATATATTATATGCACACGTTAAAATTTCATAT [CACACA_site4552],10.1 ± 0.11
7,TAAAAATATTAATAAACACACAATGAGATATTGAAT [CACACA_site3153],9.8 ± 0.27
8,AAATATAAAATTTATTGTACATTATATATAATATAT [XGTACX_site1416],10.8 ± 0.52
9,TGATATATTTATATTACACACTTAAACGAAAAAAAA [CACACA_site3021],9.995 ± 0.021
10,TATTATAATATTTATACACACATAATTTTGATAAAT [CACACA_site583],9.95 ± 0.16
11,AAAAAAAATAAAGAGAAAAAAAAAAGAAAATTATAT [GTGCAC_negctrl_site550],9.62 ± 0.29
12,TAAATTAATATGTATCGTACAATATATAAAACGATG [XGTACX_site2818],10.8 ± 0.49
13,CATTCTTGTTTAAAAAGTACATAAACATATATATAT [XGTACX_site1751],11.3 ± 0.92
14,GTCATAAATGTACGCACACATACATAAACATATACA [CACACA_site650],11.5 ± 0.93
15,GTTCTTTTATATATTTGTACATATTTATATATATTG [XGTACX_site4078],11.1 ± 0.57
16,ACATATTATATAACTCGTACTCGTAAAATATGTTGT [XGTACX_site2240],11.1 ± 0.62
17,TTCTTCTGTTTTATTACACACCATTTTGCGTATACA [CACACA_site2070],10.6 ± 0.47
18,TAAACATAAATATGCACACATATACATATATTCATA [CACACA_site2667],9.895 ± 0.021
19,AAGAAAAATATATTTATATATATATATATTAAATAT [TGCATGCA_negctrl_site500],9.48 ± 0.16
20,TATATGCCTATAAGAAGTACTGTGTAATGTAATATA [XGTACX_site8089],11 ± 0.67
21,AAAGAAAAAAAAAACACACACACACCCATTCAATAT [CACACA_site38],10.2 ± 0.23
22,TATAATAATATTTATTGTACAATTAGTTTAATTCAT [XGTACX_site272],11 ± 0.52

# — the supplement of paper PMC11417369
